Measured values from PubChem BioAssay (NCI).
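Step 1: Grow cells in 96-well plates. Step 2: Expose to compound for 48 hours at 5 concentrations. Step 3: Interpolate endpoints linearly; if unreached, use highest concentration. GI50 is the concentration that inhibits growth by half. The concentration for full growth arrest is given as TGI.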

test system: NCI-H322M lung; test: inhibition of tumour cell growth, NCI panel, 48 h

First: C=C(C=O)[C@@H]1CC[C@]2(COC(C)=O)CC[C@]3(C)C(CC[C@@H]4[C@@]5(C)CC[C@H](OC(C)=O)C(C)(C)[C@@H]5CC[C@]43C)[C@@H]12 (stereo partly drawn)
Second: CCN1C(=O)N(CC)C2SC(N/N=C/c3ccccc3F)=NC21 (stereo not drawn)
The GI50 of the first is higher: over 100 µM for the first, 1.16 µM for the second.

Going from `CC(C)(C)Nc1nc2c(OCCc3ccccc3)cccn2c1-c1ccc(Cl)cc1` to `N#Cc1cnc2ccc(-c3cnc4n[nH]nc4c3)cc2c1N1CCc2cc(F)c(Cl)cc21`, the GI50 falls from 21.6 µM to 3.41 µM (6.3-fold).

`C=C(C=O)[C@@H]1CC[C@]2(COC(C)=O)CC[C@]3(C)C(CC[C@@H]4[C@@]5(C)CC[C@H](OC(C)=O)C(C)(C)[C@@H]5CC[C@]43C)[C@@H]12` (stereo partly drawn) and `CCN1C(=O)N(CC)C2SC(N/N=C/c3ccccc3F)=NC21` (stereo not drawn) cannot be ordered by TGI: over 100 µM for the first, over 100 µM for the second.

First: CC(C)(C)Nc1nc2c(OCCc3ccccc3)cccn2c1-c1ccc(Cl)cc1
Second: N#Cc1cnc2ccc(-c3cnc4n[nH]nc4c3)cc2c1N1CCc2cc(F)c(Cl)cc21
The TGI of the first is higher: over 100 µM for the first, 41.9 µM for the second.
